From the supplement of paper PMC11417369
± gives the standard deviation of the averaged measurements. This is one part of the list.

These sequences were tested on PfAP2-EXP AP2 domain (GST-tagged) (assay: gcPBM binding intensity (ln(normalized median fluorescence intensity)); higher = stronger DNA binding).
How it was run: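 GST-tagged P. falciparum DNA-binding domains produced in E. coli were incubated for 1 h on an Agilent 4 × 180k array of primer-extended double-stranded 36-bp intergenic genomic probes with negative controls. Binding intensity is the highest Masliner-normalised natural-log median intensity across replicate spots of either probe orientation, with bound protein detected by Alexa488 anti-GST antibody at 488 nm.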

In order of rising “gcPBM binding intensity (ln)” value:
1. AATGATTTTAAATGAACATAATTTATATTCATAACA [GTGCAC_negctrl_site256]  8.04 ± 0.42
2. AATAAAAATTCAAGTTGTACTTTTTTAAAAATACAA [XGTACX_site3949]  8.12 ± 0.24
3. TTCTCACTTTTAAATTTTATTCAAAAATAAGGAAAG [XGTACX_negctrl_site444]  8.17 ± 0.37
4. AATAATATATATATTACACACTAATTGTATTATATA [CACACA_site448]  8.27 ± 0.31
5. AAAATGAATAAAAATACACACATATATGTTATTCTC [CACACA_site2671]  8.3 ± 0.35
6. TGATTCATTGATAAGGGTACATTTATAATTATGATA [XGTACX_site6319]  8.31 ± 0.32
7. ATGATAATTTTTTTCTCACACACAAATATTTTAATC [CACACA_site3665]  8.31 ± 0.35
8. AATAAAAAAATATATTGTACTAATAATTATATGTTT [XGTACX_site2246]  8.34 ± 0.32
9. AAATCACATAAAACATAATCAAATGAAATATAATCA [CACACA_negctrl_site123]  8.45 ± 0.34
10. AATTTTTGTTACAAGATGCACTTAATTTTTCTAAAT  8.46 ± 0.29
11. GGATTTTTCGAATCATGTACATATTTAATTAAAAAA [XGTACX_site7939]  8.46 ± 0.41
12. TAACAATATCTAGATACACACACATATCTCTCAATC [CACACA_site8122]  8.51 ± 0.6
13. ACACATAATATAAAGGTGCTATATTGTATTCATTTT [GTGCAC_site9457]  8.52 ± 0.33
14. TGCAAAAAAAAAAAAAAAAAATATATGGAAATATAT [GTGCAC_negctrl_site257]  8.54 ± 0.19
15. ATTTATTTATTTAGCTGTACATTTATACAGAACGAT [XGTACX_site3336]  8.55 ± 0.41
16. ACTGTAAATTTATTCGGTACACATATAAATAATATT [XGTACX_site7346]  8.59 ± 0.3
17. TATTGTAAAAAGATTACACACGTTCTATATACTTTT [CACACA_site5379]  8.59 ± 0.54
18. TACATAAACATTTATACACACATTATGTATACATAT [CACACA_site405]  8.6 ± 0.46
19. AACTTTGGCAAACACACACACACACCCACACCCACA [CACACA_site588]  8.61 ± 0.43
20. CAATAATATATATATTGTACATTTTTTTTTATTATT [XGTACX_site3149]  8.62 ± 0.43
21. GAGAGTAAAACAAATATACACACCATAAAGTTATAA [CACACA_site1686]  8.62 ± 0.52
22. TTTTTATTGCAATACTTATATTTTTTTATGATTAAA [TGCATGCA_negctrl_site147]  8.63 ± 0.26
23. AAAAAATCACAACACACACACACACTAATAAAAAAA [CACACA_site8410]  8.65 ± 0.46
24. AAAGATTCTTTGAATTGTACAAATATATTTACTCAC [XGTACX_site8772]  8.68 ± 0.46
25. TTAATACCCGGACACACACACACAAAATAAAATACA [CACACA_site4296]  8.69 ± 0.49
26. ACAGTAGCCAGTAACTGTACGGATTGTAGAGATCAG [XGTACX_site4873]  8.69 ± 0.39
27. TAAATATTATTATATACATGCACTTACAACTTTTTT [TGCATGCA_site877]  8.7 ± 0.24
28. ATTATTTTTAAAAATTGTACAGTATAAGAGAGAAAT [XGTACX_site7094]  8.73 ± 0.11
29. TATATTATTTTCTTTTGTACACATATATATCAGTGT [XGTACX_site664]  8.74 ± 0.47
30. TTAATGGCAAAATAGGCACACACACCGATACATATA [CACACA_site8263]  8.86 ± 0.42
31. AAACATATATTAAGCACACACAAACAAAAAAACAAA [CACACA_site2549]  8.87 ± 0.46
32. TATTTTTCCATATGCACACACACCGTATCTAGAATA [CACACA_site6654]  8.95 ± 0.33
33. ATAATATTTAGGTGTGCACACAAACATACATATATA [CACACA_site9120]  8.99 ± 0.29
34. TTTTCATACACTGCTAGTATATACTACCACTGACAT [GTGCAC_negctrl_site514]  9.1 ± 0.49
35. ATGTTCCATTTTACTTGTACTAATTTTTTCCTATCT [XGTACX_site6474]  9.1 ± 0.38
36. AAATTGAGACAACAGGTGCATATAAATATACAGTGT [GTGCAC_site9634]  9.2 ± 0.028
37. ATTTCGTTCTTTTATGCACACTCAACATATAAATTA [CACACA_site8322]  9.24 ± 0.38
38. TAGAATGTATGTAGTGCACACCTCTATAATATATTA [CACACA_site1873]  9.27 ± 0.22
39. ACGTATCAATTTATTGGTACACATAAATATATATAT [XGTACX_site5556]  9.355 ± 0.064
40. CCAACATGCAGACGCACACACAAAAAAAGCATGCAT [CACACA_site74]  9.36 ± 0.23
41. ATATATATATATAAATGTACATATGTATAATTCATA [XGTACX_site6679]  9.79 ± 0.2
42. ATAATAATAAAGTATGCATGCATATAATATAATATA [TGCATGCA_site796]  9.87 ± 0.22
43. ACATTGAACAAAATAGTAAGCACATATATATATATA [GTGCAC_negctrl_site679]  10 ± 0.39
44. AAAATATATTCAACTTGTACATATATATATATATAT [XGTACX_site7629]  10.3 ± 0.13
